The whole screen tested about 300,000 compounds, of which about 1,200 (0.4%) were called active. The shares of active, inactive and inconclusive entries below differ from those in the screen. The call rests on the fitted dose curve; in most records, active means well fitted inhibition curve with a large enough effect; inconclusive means small, poorly fitted or top-dose-only effect, or another doubt; inactive means no such curve, though single readings can be large or run the other way. Where the call is inconclusive, the potency comes from a doubtful curve fit.
The molecules below were run against Lysosomal alpha-glucosidase (Homo sapiens) (UniProt P10253) (assay: qHTS Assay for Inhibitors and Activators of Human alpha-Glucosidase Cleavage of Glycogen). Conditions: recombinant GAA, glycogen substrate, Amplex Red glucose oxidase fluorescence; activity change, negative = inhibition: at 76.4 µM (top of the series) unless noted.
In short: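 Recombinant human enzyme (4 nM); glycogen substrate; 37 C, 40 min, pH 5.0. Readout: coupled glucose oxidase/Amplex Red fluorescence.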
Potency means the concentration at half of the fitted maximal effect.
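Wherever activity change, negative = inhibition is given: 0% = full enzyme reaction and -100% = no-enzyme basal signal.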

| Compound | Potency | activity change, negative = inhibition |
| --- | --- | --- |
| CC(C)c1cc(C(=O)NC(C)c2ccccc2)no1 (configuration not stated) | inactive | – |
| COc1ccc2[nH]c(=O)c(CN(Cc3ccco3)Cc3nnnn3Cc3ccccc3)cc2c1 | inconclusive: 22.2 µM [activator, single point] | – |
| COc1cc(/C=N/NC(=O)CSc2ccccn2)ccc1O | inconclusive: 31.6 µM [inhibitor, partial curve] | – |
| O=C(O)c1oc2ccccc2c1CN1CCN(c2ccccc2)CC1 | inactive | – |
| O=C(NNC(=S)NC(=O)c1cccnc1)c1ccccc1 | inconclusive: 22.4 µM [inhibitor, single point] | – |
| S=C(NCc1ccco1)Nc1cc(-c2ccccc2)[nH]n1 | inconclusive: 35.5 µM [inhibitor, partial curve] | – |
| CCN(CC)c1ccc(/C=N/NS(=O)(=O)c2ccc(CNC(C)=O)cc2)cc1 | inconclusive: 20 µM [inhibitor, partial curve] | – |
| CCC(C)Nc1nc(SC(C(C)=O)C(C)=O)nc(N(C)C)n1 (configuration not stated) | inconclusive: 19.8 µM [inhibitor, partial curve, poor fit] | – |
| CCOc1ccc(CN(C(=O)c2nc(SC)ncc2Cl)C2CCS(=O)(=O)C2)cc1 (configuration not stated) | inactive | – |
| CCOc1ccccc1C(=O)Nc1cc(Cl)ccc1O | inconclusive: 35.5 µM [inhibitor, single point] | – |
| CC1(C)Cc2c(C#N)c(NCC3CCCO3)nc(-c3ccco3)c2CO1 (configuration not stated) | inactive | – |
| CCCN(CCC)S(=O)(=O)c1ccc(NC(=O)COc2ccccc2)cc1 | inconclusive: 3.14 µM [inhibitor, partial curve] | – |
| CC(C)c1ccc(Nc2ncnc3c2nc2n3CCCC2)cc1 | inactive | – |
| CCOC(=O)N1CCN(C(=O)Nc2sc3nc4n(c(=O)c3c2C)CCC(C)CC4)CC1 (configuration not stated) | active: 31.6 µM | – |
| Cc1c(Cl)c(C(=O)NNC(=S)Nc2ccc(F)cc2)nn1C | inconclusive: 11.2 µM [inhibitor, partial curve] | – |
| Cc1cc(-c2ccccc2)nc(N(C)N)c1S(C)(=O)=O | inconclusive: 28 µM [inhibitor, partial curve] | – |
| O=C1NNC(c2ccccc2)=N/C1=C\c1ccccc1Cl | inactive | – |
| COc1cc2c(cc1NC(=S)Nc1cccc(C(F)(F)F)c1)oc1ccccc12 | inconclusive: 25.1 µM [inhibitor, single point] | – |
| NC(=O)CNc1n[nH]c(=S)[nH]c1=O | inconclusive: 28 µM [inhibitor, partial curve] | – |
| Cc1cccc(Nc2c(-c3cccs3)nc3nc(C)cc(C)n23)c1 | inconclusive: 1.12 µM [inhibitor, full curve] | – |
| COCc1cc(C)nc(SCC(=O)c2ccc(O)c(O)c2)c1C#N | active: 14.1 µM | – |
| CCOC(=O)C1CCCN(S(=O)(=O)c2ccc3c(c2)CCN3C(=O)CC)C1 (configuration not stated) | inactive | – |
| O=C1c2cccc3cccc(c23)C(=O)N1CC1CCN(CC(O)COc2ccc3ccccc3c2)CC1 (configuration not stated) | active: 25.1 µM | – |
| COc1ccc(NC(=O)C23CC4CC(C2)CC(n2cnc(Br)n2)(C4)C3)c(OC)c1 | inconclusive: 39.8 µM [activator, single point] | – |

| Compound | Potency | activity change, negative = inhibition |
| --- | --- | --- |
| COc1ccc(/C=N/NC(=O)CNC(=O)c2ccc(S(=O)(=O)N3CCOCC3)cc2)cc1OC | inconclusive: 6.26 µM [inhibitor, single point] | – |
| Cc1ccc(Nc2c(-c3ccsc3)nc3cccc(C)n23)cc1 | inconclusive: 5.62 µM [inhibitor, full curve] | – |
| CC(=O)Nc1ccc(/C(C)=N/NC(=O)c2ccncc2)cc1 | inconclusive: 14.1 µM [inhibitor, partial curve] | – |
| Cc1c(NC(=O)CC(C)C)cccc1-c1nc2cccnc2s1 | inconclusive: 11.2 µM [inhibitor, partial curve] | – |
| CC(C)c1cc(NC(=O)C(C)(C)C)cc(C(C)C)c1O | active: 31.6 µM | – |
| CCOC(=O)c1c(-c2cccs2)csc1N | inconclusive: 39.5 µM [inhibitor, partial curve] | – |
| C/C(=C\C(=O)c1ccncc1)Nc1ccccc1O | active: 25.1 µM | – |
| CC(=O)c1cc(NC(=O)c2ccc(C)cc2)c(=O)oc1C | inconclusive: 31.6 µM [inhibitor, partial curve] | – |
| Cc1cc(NC(=O)COc2cccc3cccnc23)no1 | inactive | – |
| Cc1sc2nc(CN3CCN(c4ccc(O)cc4)CC3)[nH]c(=O)c2c1C | active: 15.8 µM | – |
| N#CNC1=NCN(Cc2ccccc2)CN1 | – | inconclusive: 39.9% [activator] |
| CN(C)c1ccc(-c2nc3cnccn3c2Nc2cccc(C(F)(F)F)c2)cc1 | inconclusive: 2.51 µM [inhibitor, full curve] | – |
| CCOC(=O)c1[nH]c(C)c(C(=O)NC2CCCC2)c1C | inconclusive: 17.8 µM [inhibitor, partial curve, poor fit] | – |
| C(=N\Nc1ccccn1)/c1ccc2c(c1)OCCO2 | inconclusive: 28.2 µM [inhibitor, partial curve] | – |
| Cc1cc(C(=O)NNc2ccc(F)cc2)no1 | inconclusive: 15.8 µM [inhibitor, partial curve] | – |
| Cc1ccc(Nc2cc(C)c(O)c(C)c2)cc1 | inconclusive: 31.6 µM [activator, single point] | – |
| COc1ccc(/C=N/Nc2nc3ccccc3o2)cc1O | inconclusive: 22.2 µM [inhibitor, partial curve] | – |
| CC(=O)c1cccc(NC(=O)C2=CC(c3ccc4c(c3)OCO4)=NS(=O)(=O)N2C)c1 | inconclusive: 50.1 µM [inhibitor, single point] | – |
| CCC(O)CNc1nc(-n2nc(C)cc2C)nc2sc3c(c12)CC(C)(C)OC3 (configuration not stated) | inactive | – |
| Fc1ccccc1-n1ncc2c1ncn1nc(-c3ccccc3Cl)nc21 | inactive | – |
| CCN(CC)S(=O)(=O)c1cc([N+](=O)[O-])ccc1NNC(=O)Nc1ccccc1OC | active: 22.2 µM | – |
| Cc1ccc2[nH]c(C)cc(=S)c2c1 | inconclusive: 28 µM [inhibitor, single point] | – |
| CC1CN(C(=O)N2CCC(C(=O)N3CCN(c4ccccc4)CC3)CC2)c2cc(Cl)ccc2O1 (configuration not stated) | inconclusive: 50.1 µM [activator, single point] | – |

— PubChem BioAssay AID2100 (National Center for Advancing Translational Sciences (NCATS), 2009)
